Reference: PubChem BioAssay AID488969 (Vanderbilt High Throughput Screening Facility, 2010)
Whole data set: some 110,000 compounds, median “z-score” near -0.1, cut for the highest 2% near 2. The list shows a part of the results. Calls of active or inactive are those of the source.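 Rule for the calls: active = z-score in the third read window above 3 or below -3; inactive = the rest.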

biological target: Metabotropic glutamate receptor 8 (Rattus norvegicus) (UniProt P70579); assay: rat mGluR8 modulators via GIRK flux, primary screen, cell-based, thallium flux, HTS (AID 488969); conditions: HEK293 rat mGluR8, GIRK (G protein-gated inwardly rectifying potassium channel) thallium flux, FluoZin2; at 10 µM; stronger effect = higher value; submaximal glutamate (EC20) added with thallium
Chain of UniProt P70579 (P70579 whole entry, looked up): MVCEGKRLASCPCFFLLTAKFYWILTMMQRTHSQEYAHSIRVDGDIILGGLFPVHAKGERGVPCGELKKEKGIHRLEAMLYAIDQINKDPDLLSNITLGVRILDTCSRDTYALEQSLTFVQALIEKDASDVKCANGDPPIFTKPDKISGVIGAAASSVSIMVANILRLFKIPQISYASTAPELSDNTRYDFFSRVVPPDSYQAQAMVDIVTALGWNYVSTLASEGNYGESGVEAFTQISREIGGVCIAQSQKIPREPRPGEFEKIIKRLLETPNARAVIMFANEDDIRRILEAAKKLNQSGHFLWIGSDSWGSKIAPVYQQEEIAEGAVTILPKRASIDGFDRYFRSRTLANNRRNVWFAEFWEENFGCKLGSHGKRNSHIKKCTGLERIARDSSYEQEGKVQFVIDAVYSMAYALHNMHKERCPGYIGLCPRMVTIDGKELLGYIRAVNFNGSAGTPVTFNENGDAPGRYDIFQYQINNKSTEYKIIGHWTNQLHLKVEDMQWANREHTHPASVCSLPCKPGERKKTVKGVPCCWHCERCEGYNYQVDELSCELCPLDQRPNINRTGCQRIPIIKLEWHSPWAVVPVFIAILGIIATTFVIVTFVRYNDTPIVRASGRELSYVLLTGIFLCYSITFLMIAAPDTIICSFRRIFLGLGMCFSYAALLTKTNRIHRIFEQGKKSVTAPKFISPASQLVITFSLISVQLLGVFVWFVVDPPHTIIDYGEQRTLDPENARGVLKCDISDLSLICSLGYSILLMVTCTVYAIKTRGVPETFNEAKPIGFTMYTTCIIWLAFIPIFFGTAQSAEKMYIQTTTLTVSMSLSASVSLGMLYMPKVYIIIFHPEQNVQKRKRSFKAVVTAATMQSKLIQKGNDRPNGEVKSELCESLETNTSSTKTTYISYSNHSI

SMILES	z-score
Cc1ccsc1C1Nc2ccc3ncccc3c2C2=C1C(=O)CCC2 (centres undefined)	-2.83
CCn1ncc(/C=N\NC(=O)c2csc3ccccc23)c1C	-0.141
CCN(CC)C(=O)C1CCCN(C(=O)Nc2ccc3nsnc3c2)C1 (centres undefined)	-0.135
NC(=O)COc1ccc2c3c(c(=O)oc2c1)CCCCC3	-0.458
O=S(=O)(NCc1ccc(Cl)cc1)c1cnc[nH]1	0.261
COc1ccc(-n2c(SCC(=O)NNC(=O)c3ccc(C)cc3)nnc2-c2ccncc2)cc1	0.401
Cc1cccnc1NC(=O)Nc1cccc(C(F)(F)F)c1	1.5
CN(C(=O)CSc1nnc(Cc2cccc3ccccc23)n1N)C1CCS(=O)(=O)C1 (centres undefined)	0.0476
CC1C/C(=N/N2C(=O)CSC2=S)CC(C)(C)C1 (centres undefined)	-0.42
Cn1ncc2c(Nc3cccc4ccccc34)ncnc21	0.18
CCc1nc2oc3cc(OC)ccc3c(=O)c2c(=O)n1Cc1ccco1	-0.537
CC(CN(C)Cc1ccccc1)OC(=O)C1COc2ccccc2O1 (centres undefined)	0.0724
CCS(=O)(=O)N1Cc2ccccc2CC1C(=O)Nc1nc2ccc(F)cc2s1 (centres undefined)	0.444
CCCn1nnnc1SCC(=O)Nc1nnc(CC)s1	-0.0261
COc1cccc(S(=O)(=O)Nc2cccc(C(=O)N3CCOCC3)c2)c1	-0.0885
O=C(CNC(=O)c1cccc(Br)c1)N/N=C/c1cn[nH]c1-c1ccccc1	-0.145
COc1ccc(OC)c(S(=O)(=O)n2cnc3cc(C)c(C)cc32)c1	0.123
CCc1[nH]nc2c1C(c1ccncc1)C(C#N)=C(N)O2 (centres undefined)	0.499
CCOc1c(Br)cc(CNCc2cccs2)cc1OC	-0.405
CCOC(=O)c1cc(CC)sc1NC(=O)c1ccc2c(c1)OCCO2	-0.146
CC1(C)CC(NC(=O)CC2CCCCC2)CC(C)(C)N1	0.12
CN(C)C(=O)N1CCN(C(=O)c2ccco2)CC1	-1.95
COc1ccc(-c2nc(-c3ccc4c(c3)OCO4)[nH]c2-c2ccc(OC)cc2)cc1	-0.776

SMILES	z-score
CC(C)Cn1c(=O)c(C2=NS(=O)(=O)c3ccccc3N2)c(O)c2ccccc21	active: 5.83
COc1ccc(Cn2c(-c3ccc(Cl)cc3)c[n+]3ccccc23)cc1	0.00141
O=C(COc1ccccc1)Nc1ccc2c(c1)nc1n2CCOC1	0.00921
COc1ccc(N(CC(=O)N2CC=C(c3ccccc3)CC2)S(=O)(=O)c2c(C)noc2C)cc1	-0.127
O=C(CN1C(=O)COc2ccccc21)Nc1ccc(F)cc1	-0.0719
O=[N+]([O-])c1cc(Cl)ccc1-c1nc(-c2ccccc2)no1	-0.192
O=C(Nc1nc2ccc(S(=O)(=O)N3CCCC3)cc2s1)C1CCCCC1	-0.0404
Cc1ccc(SCc2ccc(C(=O)NCc3ccncc3)cc2)cc1	-0.254
Cc1c(Nc2cc(N3CCCC(C)C3)c3nonc3c2[N+](=O)[O-])c(=O)n(-c2ccccc2)n1C (centres undefined)	0.0707
COC(=O)c1ccc(C(C(=O)NCc2ccccc2)N(Cc2ccco2)C(=O)c2cnccn2)cc1 (centres undefined)	0.053
Cc1cc(O)c(C(C)C)cc1N=C1CSC(=O)N1	0.0721
O=C(N/N=C/c1ccccc1Cl)c1cccc(F)c1	-0.342
CCOc1cccc(C(=O)N(Cc2ccc(F)cc2)C2CCS(=O)(=O)C2)c1 (centres undefined)	0.373
Cc1ccccc1Nc1nc(N)nc(COC(=O)c2ccc(O)cc2)n1	-0.494
Cc1ccc(S(=O)(=O)NCC(=O)N(CC(=O)NC2CCCCC2)CC2CCCO2)cc1 (centres undefined)	-0.238
CCOc1ccccc1-c1c2cc(O)c(=O)cc-2oc2cc(O)c(O)cc12	-2.16
CC(=O)N(C)/C=C1\Sc2ccccc2C1=O	-0.376
O=C(O)C1C2C=CC(C2)C1C(=O)Nc1ccc(C(=O)N2CCCCC2)cc1 (centres undefined)	0.353
COC(=O)c1ccc(N=NN2CCCCCC2)cc1	0.0254
COc1cc(C(=O)Sc2ccc(Cl)cc2)cc(OC)c1OC	-0.128
CC(Oc1ccc(Cl)cc1Cl)C(=O)N/N=C1\CCCc2ccccc21 (centres undefined)	0.0705
CC1Cc2ccccc2N1C(=O)Cn1nnc(-c2ccccc2NC(=O)C2CCC2)n1 (centres undefined)	-1.37
Nc1ncc(Br)cc1S(=O)(=O)NCCC(=O)Nc1cccc(Cl)c1	-0.243

SMILES	z-score
O=C(NCc1ccco1)/C(=C/c1cccnc1)NC(=O)c1ccco1	-0.286
COc1ccccc1CNC(=O)c1ccc(SC)cc1OC	-0.356
CC(=O)CSc1nc(N)c(C#N)c(-c2cccs2)c1C#N	-0.18
COc1ccc(-c2nn3cnnc3s2)cc1OC	-0.33
CCCCSc1nnc2[nH]c(=O)cc(N)n12	0.203
Cc1ccccc1Cn1ccc(NC(=O)c2cnn3c2NC(c2ccccc2)CC3C(F)(F)F)n1 (centres undefined)	-0.0576
CC1CC1C(=O)Nc1nc(-c2ccccn2)cs1 (centres undefined)	-0.149
O=C(N/N=C/c1ccc2c(c1)OCO2)c1sc2cccc(Cl)c2c1Cl	0.529
Cc1c(C(=O)Nc2cnccn2)oc2ccccc12	-0.235
CCCC(=O)NCCCc1nc2ccccc2n1CC	-0.618
COC(=O)C1=C(C)NC(C)=C(C(=O)OC)C1C(=O)OC1CCCCC1=O (centres undefined)	-0.107
CCCCCC(=O)N/N=C/c1cccs1	-0.0798
CCC(=O)Nc1ccc(/C(C)=N/NC(=O)c2c(Br)c(C)nn2C)cc1	-0.331
COc1ccc(/C=C/C(=O)N(C(C)C)C(C)C)cc1Br	-0.143
COc1ccc(C(=O)Nc2ccc(NC(=O)c3ccco3)c(Cl)c2)cc1OC	-0.432
COC(=O)c1cc(NC(=O)c2cc(C)oc2C)cc(C(=O)OC)c1	0.433
Cc1nc2sc3c(c2c(=N)n1N)CC(C)(C)OC3	-0.083
CCOC(=O)CN1C(=O)S/C(=C/c2cc(C)n(C)c2C)C1=O	-0.226
COc1ccc(C(=O)OC(C(=O)c2ccc(C)cc2)c2ccccc2)cc1 (centres undefined)	0.0355
CCS(=O)(=O)n1nc(-c2ccccc2)nc1NCc1ccco1	2.2
COC(=O)C(NC(C)=O)(Nc1nc2ccc(C)cc2s1)C(F)(F)F (centres undefined)	-0.214
Cc1ccc(N2C(=O)CSC2c2ccccn2)cc1Cl (centres undefined)	0.508
Cc1c(NC(=O)/C(C#N)=C/c2ccc(-c3cc(Cl)ccc3Cl)o2)c(=O)n(-c2ccccc2)n1C	0.245

SMILES	z-score
CCCCn1c(SCC(=O)N2CCCC2)nnc1-c1ccccc1	-0.0352
CSCc1ccc(C(=O)NCc2ccc(F)cc2)cc1	-0.21
CCOC(=O)c1ccc(NC(=O)CC2C(=O)N(c3cccc(OC)c3)C(=O)N2CCOC)cc1 (centres undefined)	0.306
Cc1cccc(C)c1NC(=S)NNc1ncc(C(F)(F)F)cc1Cl	0.289
CC(=O)Nc1ccc(S(=O)(=O)NNC(=O)c2ccc(C)cc2)cc1	-0.161
CCOC(=O)c1c(=O)n(O)c2ccc(OC)cc2[n+]1[O-]	-0.0541
O=C(CCl)N(c1ccccc1)c1c[nH]c2ccccc12	-0.0644
Cc1ccccc1C(=O)NC(NCc1ccco1)C(Cl)(Cl)Cl (centres undefined)	-0.00799
O=C(Nc1ccc(F)cc1)C1CCCCC1	-0.555
Cc1nc(C)c(C(=O)C2=C(O)C(=O)N(CCN3CCOCC3)C2c2ccco2)s1 (centres undefined)	0.392
O=C(Oc1nsnc1N1CCOCC1)N1CCCC1	-0.403
CCOc1ccc(S(=O)(=O)Nc2ccc(S(=O)(=O)N3CCOCC3)cc2)cc1	-0.0372
Cc1nc2nc(-c3ccc(Cl)cc3)cn2nc1C	0.0194
CC(C)(C)NC(=O)CSc1nc(O)cc(=O)n1-c1ccccc1	-0.397
Cc1nnsc1NC(=O)OCCCl	0.188
CCOc1ccccc1NC(=S)N1CCC(NC(=O)NC23CC4CC(CC(C4)C2)C3)CC1	-0.207
C=CCNc1oc(-c2ccc(OC)cc2)nc1C#N	1.04
Cc1cc(NC(=O)c2cnn3c(C(F)F)cc(C4CC4)nc23)no1	0.069
COc1ccc(OC)c(S(=O)(=O)Nc2ccc(O)c(Sc3ncn[nH]3)c2)c1	0.284
c1csc(-c2noc(COc3ccc4c(c3)CCCC4)n2)c1	-0.0174
C=CCNC(=O)C1CCCN(S(C)(=O)=O)C1 (centres undefined)	-1.25
CCN(CC)S(=O)(=O)c1ccc(NC(=O)c2ccc(NS(C)(=O)=O)cc2)cc1	1.67
Cc1ccc(SCCC(=O)N2CCC(C)CC2)cc1	-0.0062

SMILES	z-score
CCNC(=S)Nc1ccc(Oc2ccccc2)cc1	0.818
CCCC(=O)Nc1ccc(C(=O)NCC2CCCO2)cc1 (centres undefined)	-0.279
O=C(COC(=O)c1ccco1)c1ccc2ccccc2c1	-0.17
Cc1ccccc1Nc1nc(=O)c2cc([N+](=O)[O-])ccc2s1	0.941
Cc1ccc(O)c(-c2cc(-c3cccc(F)c3)n[nH]2)c1	-0.374
COC(=O)CSc1nnc(CNC(=O)c2cccs2)n1-c1cccc(C)c1	-0.415
CC(Oc1ccccc1)C(=O)NC1CC(C)(C)NC(C)(C)C1 (centres undefined)	0.315
CCN(CC)CCOc1ncnc2c1oc1ccccc12	-0.381
CCN(c1ccc(OC)cc1)S(=O)(=O)c1ccc2c(c1)CCN2C(=O)CCC(=O)O	-0.0659
CCC(NC(=O)NCc1ccc2c(c1)OCO2)(C(F)(F)F)C(F)(F)F	0.489
O=C1c2ccccc2C(=O)N1CCCn1nnc(-c2ccc(N3CCOCC3)cc2)n1	-0.232
Cc1ccc(F)cc1NC(=O)c1c(-c2ccccc2)noc1C	-0.466
O/N=C/c1ccccc1OCc1ccccc1Cl	-0.196
Cc1ccc(NC(=O)C2C3CCCC2C3c2ccccc2)cc1 (centres undefined)	-0.0846
CCN(C(=O)CN1CCN(C)CC1)c1cccc2ccccc12	-0.614
CCn1c(CNc2ccc(Cl)cc2)nnc1SCc1ccc(Cl)cc1	-0.0561
CC(=O)c1ccc(NC(=O)C(C)OC(=O)COc2ccc(C#N)cc2)cc1 (centres undefined)	-0.0343
O=c1cc(O)c2sc3nc(-c4cccnc4)cc(C(F)(F)F)c3c2[nH]1	0.0403
CCOc1cccc(SCc2noc(C(=O)NCCOC)c2C(=O)O)c1	0.152
Cc1ccc(-n2nnnc2-c2cnc(-c3cccnc3)nc2C(F)(F)F)cc1	-0.112
CC(C)Cn1[nH]c2c3c(ccc2c1=O)C(=O)c1ccccc1C3=O	-0.0866
CCCCCCn1c(SCCCC)nc2c1c(=O)[nH]c(=O)n2C	-0.925
